By IC50 is meant the dose at which the fit gives 50% viability; a limit (>, <) means that the fit lies beyond the doses tested. AUC is the area under the same curve over the 256-fold range up to the top dose, as a fraction; values near 1 show little effect. A top dose marked as inferred was derived from the fitted curves, not read from the paper. For some assays here: Drugs with an entry number were screened twice under separate entries, and the two screens often disagree.
The cell lines below were run with Cc1ccc(-n2nc(C(C)(C)C)cc2NC(=O)Nc2ccc(OCCN3CCOCC3)c3ccccc23)cc1 [BIRB 0796] (assay: Viability of human cancer cell lines after 72 h of drug (GDSC screen)). Settings: top dose 10 µM; top dose inferred.
Protocol: (§1)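 Human cancer cell lines in 384-well plates, medium with 10% serum, drug for 72 h over a 256-fold dose range (nine 2-fold or five 4-fold steps up to the top dose). Adherent lines were fixed and stained with the nucleic acid dye Syto60, suspension lines read with resazurin; signal relative to control wells, capped at 0 and 100%. One two-parameter sigmoid per drug and line, fitted in a mixed model over all curves with the slope shared within a line.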

Row | Cell Line | AUC | IC50 [µM]
1 | AGS (stomach, adherent) | 0.99 | > 10
2 | CADO-ES1 (Ewing sarcoma, suspension) | 0.988 | > 10
3 | D-423MG (glioma, adherent) | 0.981 | > 10
4 | D-566MG (glioma, adherent) | 0.986 | > 10
5 | ESO26 (oesophagus, adherent) | 0.988 | > 10
6 | ESO51 (oesophagus, semi-adherent) | 0.826 | 9.8
7 | EW-22 (Ewing sarcoma, adherent) | 0.977 | > 10
8 | H290 (mesothelioma, adherent) | 0.958 | > 10
9 | HCC202 (breast, adherent) | 0.981 | > 10
10 | HCC-366 (non-small cell lung carcinoma, adherent) | 0.987 | > 10
11 | JHU-029 (head and neck, adherent) | 0.968 | > 10
12 | KATOIII (stomach, semi-adherent) | 0.961 | > 10
13 | KYAE-1 (oesophagus, suspension) | 0.976 | > 10
14 | KYSE-140 (oesophagus, adherent) | 0.933 | > 10
15 | MKN7 (stomach, adherent) | 0.979 | > 10
16 | MKN28 (stomach, adherent) | 0.947 | > 10
17 | NCC010 (kidney, adherent) | 0.896 | > 10

Row | Cell Line | AUC | IC50 [µM]
18 | NCI-H508 (large intestine, semi-adherent) | 0.96 | > 10
19 | NCI-N87 (stomach, adherent) | 0.942 | > 10
20 | OC-314 (ovary, adherent) | 0.986 | > 10
21 | OCI-LY7 (B-cell lymphoma, suspension) | 0.978 | > 10
22 | OVKATE (ovary, adherent) | 0.967 | > 10
23 | QGP-1 (pancreas, adherent) | 0.905 | > 10
24 | RCC-ER (kidney, adherent) | 0.928 | > 10
25 | SCC90 (head and neck, adherent) | 0.975 | > 10
26 | SK-MEL-5 (melanoma, adherent) | 0.959 | > 10
27 | SK-MG-1 (glioma, adherent) | 0.887 | > 10
28 | SNU-81 (large intestine, adherent) | 0.982 | > 10
29 | SNU-407 (large intestine, adherent) | 0.979 | > 10
30 | SNU-C5 (large intestine, adherent) | 0.958 | > 10
31 | STS-0421 (soft tissue, adherent) | 0.951 | > 10
32 | VMRC-LCD (lung adenocarcinoma, adherent) | 0.989 | > 10
33 | YH-13 (glioma, adherent) | 0.98 | > 10
34 | ZR-75-30 (breast, adherent) | 0.939 | > 10

What follows are cell lines tested with O=C1NC(=O)c2c1c(-c1ccccc1Cl)cc1[nH]c3ccc(O)cc3c21 [Wee1 inhibitor 681640] in the same assay as above. Settings: top dose 2 µM; top dose inferred.
Protocol: as §1

Row | Cell Line | AUC | IC50 [nM]
35 | A2780 (ovary, semi-adherent) | 0.98 | > 2000
36 | AGS (stomach, adherent) | 0.979 | > 2000
37 | CADO-ES1 (Ewing sarcoma, suspension) | 0.963 | > 2000
38 | D-423MG (glioma, adherent) | 0.934 | > 2000
39 | D-566MG (glioma, adherent) | 0.869 | 1790
40 | ESO26 (oesophagus, adherent) | 0.987 | > 2000
41 | ESO51 (oesophagus, semi-adherent) | 0.851 | > 2000
42 | EW-22 (Ewing sarcoma, adherent) | 0.94 | > 2000
43 | H290 (mesothelioma, adherent) | 0.983 | > 2000
44 | HCC202 (breast, adherent) | 0.98 | > 2000
45 | HCC-366 (non-small cell lung carcinoma, adherent) | 0.988 | > 2000
46 | JHU-029 (head and neck, adherent) | 0.968 | > 2000
47 | KATOIII (stomach, semi-adherent) | 0.973 | > 2000
48 | KYAE-1 (oesophagus, suspension) | 0.955 | > 2000
49 | KYSE-140 (oesophagus, adherent) | 0.86 | > 2000
50 | MKN7 (stomach, adherent) | 0.966 | > 2000
51 | MKN28 (stomach, adherent) | 0.982 | > 2000
52 | NCC010 (kidney, adherent) | 0.977 | > 2000

Row | Cell Line | AUC | IC50 [nM]
53 | NCI-H508 (large intestine, semi-adherent) | 0.972 | > 2000
54 | NCI-N87 (stomach, adherent) | 0.902 | > 2000
55 | OC-314 (ovary, adherent) | 0.969 | > 2000
56 | OCI-LY7 (B-cell lymphoma, suspension) | 0.902 | 1280
57 | OVKATE (ovary, adherent) | 0.979 | > 2000
58 | QGP-1 (pancreas, adherent) | 0.98 | > 2000
59 | RCC-ER (kidney, adherent) | 0.951 | > 2000
60 | SCC90 (head and neck, adherent) | 0.972 | > 2000
61 | SK-MEL-5 (melanoma, adherent) | 0.975 | > 2000
62 | SK-MG-1 (glioma, adherent) | 0.97 | > 2000
63 | SNU-81 (large intestine, adherent) | 0.982 | > 2000
64 | SNU-407 (large intestine, adherent) | 0.973 | > 2000
65 | SNU-C5 (large intestine, adherent) | 0.956 | > 2000
66 | STS-0421 (soft tissue, adherent) | 0.983 | > 2000
67 | VMRC-LCD (lung adenocarcinoma, adherent) | 0.987 | > 2000
68 | YH-13 (glioma, adherent) | 0.919 | > 2000
69 | ZR-75-30 (breast, adherent) | 0.983 | > 2000

What follows are cell lines tested with O=C(c1cc(Cc2n[nH]c(=O)c3ccccc23)ccc1F)N1CCN(C(=O)C2CC2)CC1 [Olaparib] in the same assay as above. Settings: top dose 5 µM; screen: GDSC drug entry 1017; top dose inferred.
Protocol: as §1

Row | Cell Line | AUC | IC50 [µM]
70 | AGS (stomach, adherent) | 0.978 | > 5
71 | CADO-ES1 (Ewing sarcoma, suspension) | 0.978 | > 5
72 | D-423MG (glioma, adherent) | 0.923 | > 5
73 | D-566MG (glioma, adherent) | 0.801 | 2.39
74 | ESO26 (oesophagus, adherent) | 0.989 | > 5
75 | ESO51 (oesophagus, semi-adherent) | 0.908 | > 5
76 | EW-22 (Ewing sarcoma, adherent) | 0.879 | 4.77
77 | H290 (mesothelioma, adherent) | 0.985 | > 5
78 | HCC202 (breast, adherent) | 0.948 | > 5
79 | HCC-366 (non-small cell lung carcinoma, adherent) | 0.988 | > 5
80 | JHU-029 (head and neck, adherent) | 0.927 | > 5
81 | KATOIII (stomach, semi-adherent) | 0.99 | > 5
82 | KYAE-1 (oesophagus, suspension) | 0.972 | > 5
83 | KYSE-140 (oesophagus, adherent) | 0.984 | > 5
84 | MKN7 (stomach, adherent) | 0.982 | > 5
85 | MKN28 (stomach, adherent) | 0.986 | > 5
86 | NCC010 (kidney, adherent) | 0.986 | > 5

Row | Cell Line | AUC | IC50 [µM]
87 | NCI-H508 (large intestine, semi-adherent) | 0.934 | > 5
88 | NCI-N87 (stomach, adherent) | 0.979 | > 5
89 | OC-314 (ovary, adherent) | 0.991 | > 5
90 | OCI-LY7 (B-cell lymphoma, suspension) | 0.997 | > 5
91 | OVKATE (ovary, adherent) | 0.979 | > 5
92 | QGP-1 (pancreas, adherent) | 0.883 | > 5
93 | RCC-ER (kidney, adherent) | 0.986 | > 5
94 | SCC90 (head and neck, adherent) | 0.981 | > 5
95 | SK-MEL-5 (melanoma, adherent) | 0.946 | > 5
96 | SK-MG-1 (glioma, adherent) | 0.98 | > 5
97 | SNU-81 (large intestine, adherent) | 0.964 | > 5
98 | SNU-407 (large intestine, adherent) | 0.949 | > 5
99 | SNU-C5 (large intestine, adherent) | 0.981 | > 5
100 | STS-0421 (soft tissue, adherent) | 0.949 | > 5
101 | VMRC-LCD (lung adenocarcinoma, adherent) | 0.993 | > 5
102 | YH-13 (glioma, adherent) | 0.964 | > 5
103 | ZR-75-30 (breast, adherent) | 0.983 | > 5

Same assay, conditions: top dose 10 µM; screen: GDSC drug entry 1495

Row | Cell Line | AUC | IC50 [µM]
104 | CADO-ES1 (Ewing sarcoma, suspension) | 0.976 | > 10
105 | D-423MG (glioma, adherent) | 0.755 | 4.07
106 | D-566MG (glioma, adherent) | 0.849 | 7.34
107 | ESO26 (oesophagus, adherent) | 0.973 | > 10
108 | ESO51 (oesophagus, semi-adherent) | 0.963 | > 10
109 | EW-22 (Ewing sarcoma, adherent) | 0.728 | 2.7
110 | H290 (mesothelioma, adherent) | 0.971 | > 10
111 | HCC202 (breast, adherent) | 0.95 | > 10
112 | HCC-366 (non-small cell lung carcinoma, adherent) | 0.952 | > 10
113 | JHU-029 (head and neck, adherent) | 0.832 | 8.56
114 | KATOIII (stomach, semi-adherent) | 0.987 | > 10
115 | KYAE-1 (oesophagus, suspension) | 0.966 | > 10
116 | MKN7 (stomach, adherent) | 0.978 | > 10
117 | NCC010 (kidney, adherent) | 0.977 | > 10
118 | NCI-H508 (large intestine, semi-adherent) | 0.972 | > 10
119 | NCI-N87 (stomach, adherent) | 0.959 | > 10
120 | OC-314 (ovary, adherent) | 0.908 | > 10
121 | OVKATE (ovary, adherent) | 0.977 | > 10
122 | QGP-1 (pancreas, adherent) | 0.954 | > 10
123 | RCC-ER (kidney, adherent) | 0.984 | > 10
124 | SCC90 (head and neck, adherent) | 0.947 | > 10
125 | SK-MEL-5 (melanoma, adherent) | 0.968 | > 10
126 | SK-MG-1 (glioma, adherent) | 0.964 | > 10
127 | SNU-81 (large intestine, adherent) | 0.919 | > 10
128 | SNU-407 (large intestine, adherent) | 0.902 | > 10
129 | SNU-C5 (large intestine, adherent) | 0.954 | > 10
130 | STS-0421 (soft tissue, adherent) | 0.897 | > 10
131 | VMRC-LCD (lung adenocarcinoma, adherent) | 0.975 | > 10
132 | YH-13 (glioma, adherent) | 0.969 | > 10
133 | ZR-75-30 (breast, adherent) | 0.981 | > 10

— the supplement of paper PMC4967469
